Measured values from paper PMC6919601, “Identification of Plasmodium dipeptidyl aminopeptidase allosteric inhibitors by high throughput screening” (PLoS ONE, 2019).
The whole screen tested about 110,000 compounds, of which about 230 (0.21%) showed an effect of 50% or more. The list shows a part of the results.

biological target: DPAP1 (Plasmodium falciparum, UniProt Q8IIJ9); assay: primary screen, percent inhibition; read by cleavage of a fluorogenic dipeptide substrate; higher = more effect of the substance; set-up: species or system P. falciparum D10 trophozoite lysates; single well
Sequence (Q8IIJ9 whole entry, looked up): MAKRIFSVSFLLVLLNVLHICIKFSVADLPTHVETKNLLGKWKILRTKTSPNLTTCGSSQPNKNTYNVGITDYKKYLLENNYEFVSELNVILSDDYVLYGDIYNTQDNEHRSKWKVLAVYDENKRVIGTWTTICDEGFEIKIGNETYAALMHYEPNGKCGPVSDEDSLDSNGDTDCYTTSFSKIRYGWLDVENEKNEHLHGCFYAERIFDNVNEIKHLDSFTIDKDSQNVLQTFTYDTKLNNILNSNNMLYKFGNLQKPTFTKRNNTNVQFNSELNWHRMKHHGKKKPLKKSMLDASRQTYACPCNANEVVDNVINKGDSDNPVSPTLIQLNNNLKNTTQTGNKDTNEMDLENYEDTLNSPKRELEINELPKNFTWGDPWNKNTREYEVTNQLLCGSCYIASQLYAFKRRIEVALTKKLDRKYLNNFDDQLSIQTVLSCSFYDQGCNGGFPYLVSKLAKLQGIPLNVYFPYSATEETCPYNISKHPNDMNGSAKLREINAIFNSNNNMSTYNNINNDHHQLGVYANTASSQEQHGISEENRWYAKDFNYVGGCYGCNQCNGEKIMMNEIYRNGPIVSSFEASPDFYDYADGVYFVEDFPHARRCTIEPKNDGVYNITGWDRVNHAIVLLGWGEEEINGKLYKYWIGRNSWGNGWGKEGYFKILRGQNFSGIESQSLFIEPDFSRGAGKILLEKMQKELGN
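Note: 30 min substrate incubation versus DMSO and 10 µM JCP410 controls.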

| Structure (SMILES) | % Inhibition @ 10 uM [%] |
| --- | --- |
| COc1ccc(C2OC(COc3ccccc3)CN(C(=O)c3ccccc3)O2)cc1OC (stereo not drawn) | 22.4 |
| CCCN(CCO)Cc1ccccc1 | 1.08 |
| COc1ccc2cc(Br)ccc2c1CC(=O)NCC1CCCO1 (stereo not drawn) | -0.25 |
| CCOc1cc(C(=O)Nc2nnc(S(=O)(=O)N3CCOCC3)s2)cc(OCC)c1OCC | -1.72 |
| Cc1ccc(S(=O)(=O)Nc2nc3ccccc3nc2Nc2ccc(S(N)(=O)=O)cc2)cc1 | -0.425 |
| Cc1cc(O)n(-c2nc(-c3ccccc3)cs2)n1 | -1.05 |
| c1ccc(-c2cc3c(N4CCCCCC4)ncnc3s2)cc1 | -5.28 |
| COc1ccc(-c2nc(CSCC(=O)NCCCOC(C)C)c(C)o2)cc1 | -1.05 |
| CCN(CC)c1ncnc2sc(C(=O)NCCc3ccc(OC)c(OC)c3)c(C)c12 | 1.2 |
| Cc1cc(NC(=O)c2cc3nc(-c4cccs4)cc(C(F)(F)Cl)n3n2)no1 | 2.02 |
| COc1ccc(-c2cc(C(=O)N3CCN(C)CC3)c3ccccc3n2)cc1 | 1.03 |
| Cc1cc(C)n(CC(O)Cn2c3ccccc3c3ccccc32)n1 (stereo not drawn) | -10.2 |
| Cc1cc(O)nc2c1c(O)nn2C1CCOC(C)(C)C1 (stereo not drawn) | 2.84 |
| CC(C)NC(=O)c1cnn(-c2ccccc2)c1-n1cccc1 | -3.35 |
| CC(C)C(=O)N1CCN(c2ccc(NC(=O)Cc3ccccc3)cc2Cl)CC1 | 5.08 |
| CN(C(=O)c1ccco1)c1ccccc1 | 1.8 |
| CCc1c(C)sc(NC(=O)Cn2nc(C(F)(F)F)c(Br)c2C)c1C(N)=O | 5.09 |
| Cc1ccccc1OCCCCCCN1CCCC1 | -0.693 |
| CCc1ccc(CN(C)CCc2ccccn2)cc1 | 1.83 |
| Cc1nn2c3c(cnc2c1-c1ccccc1)C(=O)CC(C)C3 (stereo not drawn) | -5.2 |
| Cc1ccc(NC(=O)CC2Sc3ccccc3NC2=O)c([N+](=O)[O-])c1 (stereo not drawn) | -0.424 |
| CSC1=NC(C)(C)Cc2cc3c(cc21)OCCO3 | -5.62 |
| O=C(Nc1cccc2cccnc12)c1cccnc1 | -6.65 |
| CCC(Oc1ccccc1)C(=O)Nc1nn2c(-c3ccco3)nnc2s1 (stereo not drawn) | 7.1 |
| N#CCNC(=O)C1(NC(=O)OCc2ccccc2)CCCCC1 | -6.46 |
| O=c1c2c(-c3ccccc3)csc2nc2c3ccccc3c(NCCCO)nn12 | 0.835 |

| Structure (SMILES) | % Inhibition @ 10 uM [%] |
| --- | --- |
| CCOc1ccccc1C(=O)Nc1c(-c2cccs2)nc2cc(C)ccn12 | 0.121 |
| O=C(O)CSCCc1ccncc1 | 1.8 |
| COc1cc2c(cc1OC)Sc1ccccc1C(N1CCN(C)CC1)C2 (stereo not drawn) | 4.64 |
| COc1ccc(C2C3=C(O)CC(C)(C)CC3=Nc3nc4ccccc4n32)c(OC)c1OC (stereo not drawn) | 1.73 |
| CCCC(=O)N1CCN(c2ccc(NC(=O)c3ccco3)cc2)CC1 | -0.519 |
| O=C(Nc1nc2ccccc2s1)c1ccc(Br)cc1 | 2.63 |
| Cc1nc2ncnn2c(C)c1CCC(=O)NCc1ccc2c(c1)OCO2 | 2.93 |
| CNCc1ccccc1Sc1ccc(OC)c(OC)c1 | -6.37 |
| COc1ccc(NC(=O)CC23CC4CC(CC(C4)C2)C3)cn1 | -6.42 |
| COc1cc(OC)cc(C2c3[nH]c4ccccc4c3CCN2C(C)=O)c1 (stereo not drawn) | -5.32 |
| O=C(Cc1ccccc1)N1CCN(c2ccc(Cl)cc2)CC1 | -3.49 |
| COCCN1C(=O)c2ccccc2C(C(=O)NCc2ccccc2OC)C1c1c[nH]c2ccccc12 (stereo not drawn) | 4.58 |
| N#CCNC(=O)[C@H](CSCc1ccccc1)NC(=O)c1ccc2[nH]ccc2c1 | -0.214 |
| CCN(CC)C(=O)CN(Cc1ccc(Br)cc1)S(=O)(=O)c1ccc(C)cc1 | -1.6 |
| O=C(CSCC(=O)Nc1ccccc1-c1ccccc1)Nc1ccc2ccccc2c1 | -3.26 |
| Cc1c(C(=O)Nc2cc(C(F)(F)F)ccc2Cl)cccc1[N+](=O)[O-] | -8.2 |
| CC1=C(C(=O)OCCc2ccccc2)C(c2cccc3ccccc23)NC(=O)N1 (stereo not drawn) | 2.7 |
| CCN(Cc1ccccc1)S(=O)(=O)c1ccc2nc(O)ccc2c1 | -2.37 |
| CCOc1ccccc1NC(=O)C1=C(C)NC(=O)NC1c1cccc(OC)c1OC (stereo not drawn) | 0.812 |
| Cc1nc2ccc(S(=O)(=O)NC(C(=O)Nc3nc4ccc(Cl)cc4s3)C(C)C)cc2s1 (stereo not drawn) | 3.2 |
| O=C(c1cccc(COc2cccc3ccccc23)c1)N1CCCC1 | -3.49 |
| CCc1nonc1NC(=O)c1sc2ccccc2c1Cl | 4.83 |
| CCOc1cccc(C2Oc3ccccc3C3CC(c4cccs4)=NN32)c1O (stereo not drawn) | 14.4 |
| COc1ccc(OCC(=O)N2CCN(C(=O)COc3ccccc3)CC2)cc1 | 3.54 |
| CCCC1CCC(c2ccc(OCC)cc2)CC1=O (stereo not drawn) | 1.48 |
